Experimental data reported in article PMC4336329 (PLoS ONE, 2015).
Hit rate of the full screen: of about 310,000 compounds, about 14,000 (4.5%) showed an effect of 50% or more. Effects have a minus sign here. Some of the results follow.

The molecules below were run against human ether-à-go-go-related gene (hERG) potassium channel (human, UniProt Q12809) (assay: primary screen, population patch clamp on CHO cells stably expressing hERG).
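Further: peak tail current of the secondary pulse compared with the same well before compound.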

Chain of human ether-à-go-go-related gene (hERG) potassium channel (Q12809 whole entry, looked up): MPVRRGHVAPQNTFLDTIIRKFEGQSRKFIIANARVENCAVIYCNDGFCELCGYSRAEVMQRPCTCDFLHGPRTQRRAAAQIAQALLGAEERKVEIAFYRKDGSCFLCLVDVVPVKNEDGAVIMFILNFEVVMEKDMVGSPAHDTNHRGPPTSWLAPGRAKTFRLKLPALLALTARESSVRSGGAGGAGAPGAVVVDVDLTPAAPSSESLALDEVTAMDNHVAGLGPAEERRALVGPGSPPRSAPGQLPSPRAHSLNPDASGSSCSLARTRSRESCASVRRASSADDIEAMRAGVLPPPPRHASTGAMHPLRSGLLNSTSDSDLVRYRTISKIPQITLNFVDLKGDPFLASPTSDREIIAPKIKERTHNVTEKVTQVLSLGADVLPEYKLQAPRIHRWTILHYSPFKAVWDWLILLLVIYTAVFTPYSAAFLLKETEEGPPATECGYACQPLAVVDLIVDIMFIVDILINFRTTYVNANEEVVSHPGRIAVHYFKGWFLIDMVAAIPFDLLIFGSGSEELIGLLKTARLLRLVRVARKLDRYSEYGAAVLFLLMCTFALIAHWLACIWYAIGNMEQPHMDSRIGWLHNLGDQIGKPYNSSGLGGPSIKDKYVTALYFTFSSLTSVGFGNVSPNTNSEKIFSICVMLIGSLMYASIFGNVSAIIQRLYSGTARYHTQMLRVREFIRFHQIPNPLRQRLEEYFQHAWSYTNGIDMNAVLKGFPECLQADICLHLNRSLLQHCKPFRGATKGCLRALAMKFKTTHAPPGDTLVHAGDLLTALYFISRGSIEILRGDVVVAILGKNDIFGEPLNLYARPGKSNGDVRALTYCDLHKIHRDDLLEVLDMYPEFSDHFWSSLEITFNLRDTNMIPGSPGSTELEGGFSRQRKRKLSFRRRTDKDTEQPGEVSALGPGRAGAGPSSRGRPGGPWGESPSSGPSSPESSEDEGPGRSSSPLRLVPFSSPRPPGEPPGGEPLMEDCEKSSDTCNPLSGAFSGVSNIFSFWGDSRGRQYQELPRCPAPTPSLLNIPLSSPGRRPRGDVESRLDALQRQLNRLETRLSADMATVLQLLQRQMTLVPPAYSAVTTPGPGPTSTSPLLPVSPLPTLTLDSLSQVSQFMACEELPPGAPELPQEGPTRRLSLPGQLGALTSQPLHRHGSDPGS

| Compound | hERG current change (%, negative = inhibition) at 10uM |
| --- | --- |
| CCc1cc(C(=O)OC)c(N2C(=O)C3C4C=CC(C4)C3C2=O)s1 (centres unmarked) | 21.6% |
| CCc1ccc(C(CC(=O)c2ccc(Cl)cc2)C(=O)O)cc1 (centres unmarked) | 13.1% |
| O=C(Nc1ccc2c(c1)CCC2)C1CCN(c2c3c(nc4ncnn24)CCC3)CC1 | -73.1% |
| COc1ccc(N(CC(=O)Nc2ccc(S(=O)(=O)N3CCCCC3)cc2)S(C)(=O)=O)cc1OC | -11% |
| O=C(Nc1ccccc1Sc1ccccc1)c1ccccc1 | -5.37% |
| Cc1ccc(NC(=O)COC(=O)c2ccc3c(c2)NC(=O)C2CCCN32)cc1 (centres unmarked) | -8.37% |
| CNc1nc(N)c(C(=O)C(C)(C)C)s1 | 6.52% |
| COc1ccc(OC)c(C(C(=O)NC2CCCCC2)N(C(=O)c2ccccn2)c2cccnc2)c1 (centres unmarked) | 7.19% |
| CC(C)c1ccc(NC(=O)c2ccc(NS(C)(=O)=O)cc2)cc1 | 3.29% |
| COc1ccccc1-c1nc(C#N)c(N2CCN(C(=O)c3ccco3)CC2)o1 | -4.54% |
| Br.c1ccc(-c2ccccc2OCc2nnc3n2CCC3)cc1 | 16.3% |
| FC(F)(F)c1cc(Cl)c2nnc(-c3ccccn3)n2c1 | -10.4% |
| N#Cc1ccccc1NC(=O)CN1CCN(c2ccccn2)CC1 | -29.8% |
| CCCCC(=O)Nc1c(C)cc(C)cc1Cl | 7.59% |
| Cc1ccc(C(=O)NC(O)C(Cl)(Cl)Cl)cc1 (centres unmarked) | 2.52% |
| Cc1ccc2nc(SCC(=O)NCC3CCCO3)c(C#N)cc2c1 (centres unmarked) | 12.2% |
| COC(=O)CNC(=O)c1cccc(Cl)c1 | 7.13% |
| CC[n+]1ccccc1/C=C/Nc1ccccc1.[I-] | -44.7% |
| COc1ccc(C)cc1NC(=O)CNC(=O)[C@@H]1Cc2ccccc2CN1 | -27.4% |
| FC(F)(Cl)c1nnc2ccc(Cl)nn12 | 19.1% |
| CN(C)c1ccc(-c2cc(O)c3ncccc3c2)cc1.O=C(O)C(F)(F)F | 16.5% |
| O=C(CSc1nnc(CNC(=O)c2ccco2)o1)Nc1ccc(Cl)cc1 | 12.9% |
| CCCCNC(=S)NNC(=O)CCn1nc(C)c(Br)c1C | 1.46% |

| Compound | hERG current change (%, negative = inhibition) at 10uM |
| --- | --- |
| CC(C)(C)c1ccc(N2C(=O)CC(c3ccccc3)C2=O)cc1 (centres unmarked) | 11.7% |
| CN(C)C(=O)CSc1n[nH]c(=O)n1CCc1ccccc1 | 27.3% |
| O=C(Nc1ccccc1Cl)C1Cc2ccccc2O/C1=N\O (centres unmarked) | 8.8% |
| CN(C(=O)c1coc(=O)c2ccccc12)c1ccc(Br)cc1 | -4.83% |
| c1ccc2c(NCCCN3CCOCC3)c3ccccc3nc2c1 | -66.6% |
| CC(=O)Nc1ccccc1NC(=O)C/C(C)=N/NC(=O)c1ccccn1 | 16.1% |
| COc1ccc(C)cc1NC(=O)CSc1nnc2ccc(-c3ccccn3)nn12 | -0.164% |
| NC(=O)CN1C(=O)C(=O)N(Cc2cccc(C(F)(F)F)c2)C1=O | 7.41% |
| Cc1ccc(Sc2ncccc2C(=O)NC2CCCCCC2)cc1C | -0.588% |
| S=C(Nc1ccc(Br)cc1Cl)NN1CCOCC1 | -8.03% |
| O=C(C1CC1)N1CCc2sccc2C1c1ccc(Cl)cc1 (centres unmarked) | -13.8% |
| CN1C(=O)c2cccc3c(N(C)C)ccc(c23)C1=O | 9.29% |
| CN(C)/N=C1\C(=O)N(CN2CCN(c3ccccc3)CC2)c2ccccc21 | 11.6% |
| O=c1c2sc3ccccc3c2[nH]c(=S)n1CCN1CCOCC1 | 12.7% |
| CCn1cc(C(=O)NCCC(C)C)c(=O)c2cc(F)c(N3CCN(C)CC3)cc21 | -7.73% |
| O=S(=O)(c1ccc(Br)c2nsnc12)N1CCOCC1 | 1.43% |
| O=c1ccc2cc3ccoc3cc2o1 | 8.89% |
| COc1cccc(NC(=O)c2ccc(-c3ccc([N+](=O)[O-])cc3)o2)c1 | -36.2% |
| CCOC(=O)CC(NC(=O)c1cccs1)c1ccc(OCC)cc1 (centres unmarked) | -20.2% |
| Cc1ccc(C)c(S(=O)(=O)N2CCN(C(=O)CCNC(=O)c3ccc(Br)cc3)CC2)c1 | -33.4% |
| Cc1cc2[nH]c(=O)c(=O)[nH]c2cc1S(=O)(=O)Nc1cccc(Cl)c1 | 14.6% |
| COc1ccc(N2CCN(C(=O)CCC(=O)N3CCOc4ccc(Cl)cc43)CC2)cc1 | -52.8% |
| COC(=O)c1c(NC(=O)COC(=O)C2CCC2)sc(C)c1C | -13.4% |

| Compound | hERG current change (%, negative = inhibition) at 10uM |
| --- | --- |
| Cc1ccnc(NC(=O)C2CCN(S(=O)(=O)c3ccc4c(c3)CC(C)N4C(=O)C3CCC3)CC2)c1 (centres unmarked) | -0.431% |
| Cc1ccc(Cl)cc1N1CCN(C(=O)c2ccc3c(c2)CCN3S(C)(=O)=O)CC1 | 8.77% |
| O=C1c2ccccc2S(=O)(=O)N1Cc1cc(=O)n2ccsc2n1 | -0.428% |
| CN1CCN(NC(=O)Nc2ccc(F)cc2)CC1 | 14.1% |
| Oc1ccc(N2CCN(c3nc(-c4cccs4)nc4ccccc34)CC2)cc1 | 16.5% |
| Cc1c(CCO)sc[n+]1CC(=O)OC12CC3CC(CC(C3)C1)C2.[Cl-] | 19.8% |
| COc1ccccc1N(C)S(=O)(=O)c1ccc(C(=O)Nc2ccc(N3CCOCC3)cc2)cc1 | 4.35% |
| COc1ccc(NC(=O)Cn2cnc3sc(C)c(S(=O)(=O)N4CCOCC4)c3c2=O)c(OC)c1 | -9.68% |
| COc1ccc(N(C)C(=O)c2ccc(NC(=O)CCS(=O)(=O)c3cccs3)cc2)cc1 | 15.8% |
| CCOCCCNC(=O)c1cc2cc3cc(OC)ccc3nc2o1 | -7.74% |
| Cc1cc(OCC(=O)NNC(=O)c2ccncc2)cc(C)c1Cl | 14.9% |
| O=c1c2ccc(Cl)cc2nc(-c2ccc([N+](=O)[O-])cc2)n1O | -12.6% |
| Cc1ccc(S(=O)(=O)N(CC2CO2)c2cc(Cl)ccc2Cl)cc1 (centres unmarked) | -6.93% |
| CCc1cc2c(NC(Cc3c[nH]c4ccccc34)C(=O)O)nc(C)nc2s1 (centres unmarked) | 31.3% |
| CCCc1nc(C)c2c(=O)[nH]c(-c3cc(S(=O)(=O)N4CCN(CC)CC4)ccc3OCC)nn12.O=C(O)CC(O)(CC(=O)O)C(=O)O | 0.215% |
| Cc1ccc(-c2csc3ncnc(Nc4ccc(C(=O)O)cc4)c23)cc1.Cl | 11.5% |
| CCC(=O)OC1CC(C)N(C(=O)c2ccccc2)c2ccc(C)cc21 (centres unmarked) | -12.3% |
| COc1ccc(S(=O)(=O)NCC(=O)N(CC(=O)NC(C)(C)C)Cc2cccs2)cc1 | 8.09% |
| CSc1ccc(CN(C)C(=O)C23CC4CC(CC(Cl)(C4)C2)C3)cc1 | 9.08% |
| CCOC(=O)c1[nH]c(C)c(C(=O)OCCOc2cccc(C)c2)c1C | 5.99% |
| CSc1c(CC(=O)Nc2ccccc2C(F)(F)F)n(Cc2ccccc2)c2ccccc12 | 7.04% |
| CC(C)NC(=O)CN1CCC(c2nc3ccccc3[nH]2)CC1 | -8.64% |
| Cc1cc(C(=O)Nc2sccc2C#N)c2ccccc2n1 | 16.5% |

| Compound | hERG current change (%, negative = inhibition) at 10uM |
| --- | --- |
| O=C(CN1CCCCC1)Nc1cc(Cl)ccc1Cl | -0.685% |
| Cc1ccc2c(CN3CC=C(c4ccccc4)CC3)cc(=O)oc2c1C | -2.08% |
| Cc1ccc(CNC(=O)C2CCC(=O)N(CCc3ccc(Cl)cc3)C2)s1 (centres unmarked) | -69.4% |
| CCC(C)(C)n1nnnc1C(c1cccs1)N1CCCCC1 (centres unmarked) | -19.4% |
| COc1cc(/C=C(\C#N)C(=O)Nc2ccccc2F)ccc1OCCN1CCOCC1 | -64.6% |
| COc1ccc(N2CCN(C(=O)CCNC(=O)c3ccc(Br)cc3)CC2)cc1 | -20.2% |
| CC(=O)c1ccc(N2CCN(CC3CCCCC3)CC2)cc1 | -24% |
| CC(=O)Nc1ccc(S(=O)(=O)N2CCC(C(=O)NC3CCCC3)CC2)cc1 | -0.813% |
| N#C/C(=C\c1ccc[nH]1)S(=O)(=O)c1ccccc1 | 9.66% |
| OC(CN1CCC(c2c[nH]c3ccccc23)CC1)C(F)(F)F (centres unmarked) | 2.96% |
| CN(C)/C(=N\S(=O)(=O)c1ccccc1)c1ccc([N+](=O)[O-])cc1 | 4.32% |
| O=C(Nc1ccccc1)C1CCCN1S(=O)(=O)c1cccs1 (centres unmarked) | 13.7% |
| CC(=O)Nc1ccc(S(=O)(=O)N2CCN(C(=O)c3ncoc3-c3cccc(F)c3)CC2)cc1 | 4.84% |
| O=c1[nH]c(Cc2ccccn2)nc2scc(-c3ccccc3Cl)c12 | -13.9% |
| CC(C(=O)N1c2ccc(F)cc2CCC1C)N1C(=O)c2ccccc2C1=O (centres unmarked) | 2.72% |
| Cc1cc(C)c(NC(=O)C(C)c2cccc(C(=O)c3ccccc3)c2)c(C)c1 (centres unmarked) | 0.99% |
| COCc1cc(C)nc(OCC(=O)N/N=C/c2ccco2)c1C#N | 21.4% |
| CCNc1ccc(S(=O)(=O)N(C)C)cc1NCC(=O)Nc1ccccc1Br | 28% |
| Cc1onc(-c2c(Cl)cccc2Cl)c1NC(=O)N(C)N | -0.387% |
| CCC1Oc2ccccc2N(CC(=O)NCc2ccco2)C1=O (centres unmarked) | 13% |
